These results are taken from article PMC4336329 (PLoS ONE, 2015).

The campaign covered roughly 310,000 compounds. About 14,000 (4.5%) showed an effect of 50% or more. The effect is printed as a negative number. Some of the results follow.
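Also: peak tail current of the secondary pulse compared with the same well before compound.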

The target in the assay is human ether-à-go-go-related gene (hERG) potassium channel (human, UniProt Q12809). Nature of the assay: primary screen, population patch clamp on CHO cells stably expressing hERG.
Sequence of human ether-à-go-go-related gene (hERG) potassium channel (Q12809 whole entry, looked up): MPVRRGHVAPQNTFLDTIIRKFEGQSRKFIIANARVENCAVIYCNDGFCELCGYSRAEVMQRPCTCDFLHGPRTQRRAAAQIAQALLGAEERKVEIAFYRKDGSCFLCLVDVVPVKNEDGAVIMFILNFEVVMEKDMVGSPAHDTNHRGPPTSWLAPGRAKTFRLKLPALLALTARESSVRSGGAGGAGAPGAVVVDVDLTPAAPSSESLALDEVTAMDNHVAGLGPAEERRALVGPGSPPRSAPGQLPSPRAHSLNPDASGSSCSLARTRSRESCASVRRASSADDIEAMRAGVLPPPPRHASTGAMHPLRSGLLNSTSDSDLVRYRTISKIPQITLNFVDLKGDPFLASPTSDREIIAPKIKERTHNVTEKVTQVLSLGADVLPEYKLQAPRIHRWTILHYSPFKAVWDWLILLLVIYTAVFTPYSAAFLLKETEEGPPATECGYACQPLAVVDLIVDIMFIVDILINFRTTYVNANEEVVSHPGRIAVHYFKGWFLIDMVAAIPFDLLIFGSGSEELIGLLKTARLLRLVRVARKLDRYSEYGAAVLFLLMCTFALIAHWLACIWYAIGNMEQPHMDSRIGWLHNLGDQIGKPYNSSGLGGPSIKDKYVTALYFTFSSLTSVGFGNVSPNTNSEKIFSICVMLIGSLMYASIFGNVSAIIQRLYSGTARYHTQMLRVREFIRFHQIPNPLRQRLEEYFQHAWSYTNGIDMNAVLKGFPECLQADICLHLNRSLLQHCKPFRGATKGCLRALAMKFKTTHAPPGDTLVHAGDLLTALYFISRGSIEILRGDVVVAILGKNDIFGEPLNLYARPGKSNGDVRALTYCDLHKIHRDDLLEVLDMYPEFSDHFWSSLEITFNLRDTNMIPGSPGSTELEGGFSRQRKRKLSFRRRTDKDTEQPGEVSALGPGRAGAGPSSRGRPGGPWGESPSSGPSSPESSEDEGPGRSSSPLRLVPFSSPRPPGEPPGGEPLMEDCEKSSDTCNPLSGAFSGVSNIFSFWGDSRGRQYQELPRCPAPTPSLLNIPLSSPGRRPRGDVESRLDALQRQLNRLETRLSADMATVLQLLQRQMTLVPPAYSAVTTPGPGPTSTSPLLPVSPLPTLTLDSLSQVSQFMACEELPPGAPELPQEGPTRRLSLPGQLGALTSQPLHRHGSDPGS
In the case of `CC1CCN(C(=O)Nc2cccc(NC(=O)N3CCC(C)CC3)c2)CC1`, the “hERG current change (%, negative = inhibition) at 10uM” value is given as -1.98%.

On to `CC1(C(=O)O)C=CCN1C(=O)c1ccccc1` (stereo not drawn), for which the “hERG current change (%, negative = inhibition) at 10uM” value stood at 13.5%.

Regarding `Cc1ccc(NC(=O)COC(=O)/C=C/c2c(C)nn(-c3ccc(F)cc3)c2Cl)cc1F`, the “hERG current change (%, negative = inhibition) at 10uM” value is recorded as 0.00898%.

Turning to `CCCCCCn1c(C(C)NC(=O)c2ccco2)nc2ccccc21` (stereo not drawn), the “hERG current change (%, negative = inhibition) at 10uM” value is -59.9%.

Regarding `COc1ccc(-c2cn(-c3ccccc3)nc2C(=O)O)cc1OC`, the “hERG current change (%, negative = inhibition) at 10uM” value was determined as 5.07%.

In the case of `O=C(Nc1ccc2c(c1)CCC2)c1cnccn1`, the “hERG current change (%, negative = inhibition) at 10uM” value is recorded as -7.21%.

On to `C=CCNC(=O)CN1C2CCCC1CC(NC(=O)c1ccccc1C)C2` (stereo not drawn), for which the “hERG current change (%, negative = inhibition) at 10uM” value is -4.21%.

Turning to `Cc1ccc2c3c1C1(C(=O)N3C(C)(C)CC2C)C(C#N)=C(N)Oc2cc(O)ccc21` (stereo not drawn), the “hERG current change (%, negative = inhibition) at 10uM” value is -3.98%.

For the compound `COc1ccc(N2C(=O)c3ccccc3C2O)cc1` (stereo not drawn), the “hERG current change (%, negative = inhibition) at 10uM” value worked out at 5.64%.

`Cc1ccc(NC(=O)c2cc(=O)[nH]c3ccc(S(=O)(=O)N4CCOCC4)cc23)nc1`: the “hERG current change (%, negative = inhibition) at 10uM” value stood at 3.37%.

Regarding `Cc1nc(-c2ccc(S(=O)(=O)NCc3cccnc3)s2)cs1`, the “hERG current change (%, negative = inhibition) at 10uM” value was determined as 9.05%.

For `CCCS(=O)(=O)NCCc1cc2ccc(C)cc2[nH]c1=O`, the “hERG current change (%, negative = inhibition) at 10uM” value is reported as -9.47%.

For `OCC1(Cc2ccccc2)CCN(Cc2cccc(F)c2F)CC1`, the “hERG current change (%, negative = inhibition) at 10uM” value is on record as -11.3%.

Regarding `CCCC(C)NC(=O)COc1ccc(S(=O)(=O)N2CCCC2)cc1` (stereo not drawn), the “hERG current change (%, negative = inhibition) at 10uM” value is given as 10.6%.

Consider `CCOC(=O)C1CCN(c2nnc(N3CCCC3=O)s2)CC1`, for which the “hERG current change (%, negative = inhibition) at 10uM” value was 16.8%.

On to `CC(=O)Oc1ccc(/C=N\NC(=O)c2cc3c(ccc4ccccc43)o2)cc1`, for which the “hERG current change (%, negative = inhibition) at 10uM” value was determined as 10.6%.

With `Cn1c(CS(=O)Cc2c(Cl)cccc2Cl)nnc1SCc1ccc(Cl)cc1` (stereo not drawn), the “hERG current change (%, negative = inhibition) at 10uM” value was -56.2%.

Consider `CC(C)(C)NC(=O)c1cccc(NC(=O)CSc2ccc(Cl)cc2)c1`, for which the “hERG current change (%, negative = inhibition) at 10uM” value is given as -35.1%.

Turning to `COc1ccc2nc(SCC(=O)NCc3ccc4c(c3)OCO4)[nH]c2c1`, the “hERG current change (%, negative = inhibition) at 10uM” value is reported as -12.7%.

As for `Cl.O=C(CCl)N1CCN(CC(=O)N2CCCC2)CC1`, the “hERG current change (%, negative = inhibition) at 10uM” value was found to be 12.9%.

On to `Cc1ccc(-c2c(C(=O)N/N=C/c3cccnc3)nnn2-c2nonc2N)cc1`, for which the “hERG current change (%, negative = inhibition) at 10uM” value was 8.65%.

For `CCCN(CCC)C(=S)NC(=O)c1ccc(Cl)cc1Cl`, the “hERG current change (%, negative = inhibition) at 10uM” value is 9.72%.

Regarding `Cc1cn(S(=O)(=O)c2ccc(Br)cc2)cn1`, the “hERG current change (%, negative = inhibition) at 10uM” value was -5.63%.

With `COc1ccccc1NC(=O)Nc1nnc(-c2ccco2)s1`, the “hERG current change (%, negative = inhibition) at 10uM” value turned out to be 24.6%.

Consider `Cc1ccc(C(=O)OCC(=O)Nc2ccccc2N2CCOCC2)cc1`, for which the “hERG current change (%, negative = inhibition) at 10uM” value was -6.35%.

Regarding `COc1cccc(-c2nc(C(N)=O)c3[nH]c(=O)n(-c4ccccc4)c3n2)c1OC`, the “hERG current change (%, negative = inhibition) at 10uM” value is recorded as -14.1%.

For `CCn1cc(C(=O)N(CCC(C)C)c2c(N)n(Cc3ccccc3)c(=O)[nH]c2=O)c(=O)c2ccc(C)nc21`, the “hERG current change (%, negative = inhibition) at 10uM” value came to 3.64%.

Consider `COc1ccc(CCNC(=O)C2CC(=O)N(C3CCCC3)C2)cc1OC` (stereo not drawn), for which the “hERG current change (%, negative = inhibition) at 10uM” value came to 3.07%.

With `CCc1ccc(N(C(=O)c2ccco2)C(C(=O)NC2CCCC2)c2ccco2)cc1` (stereo not drawn), the “hERG current change (%, negative = inhibition) at 10uM” value is listed as 13.3%.

`O=c1cc(N2CCCCC2)c(-c2ccccc2)nn1Cc1ccc(Cl)cc1Cl`: the “hERG current change (%, negative = inhibition) at 10uM” value is -1.2%.

Turning to `Cn1c(=O)c2c(nc(NCCO)n2CCc2ccccc2)n(C)c1=O`, the “hERG current change (%, negative = inhibition) at 10uM” value is reported as 5.17%.

As for `CC1(C)N=C(c2ccccc2)[C@@H]2C(c3ccc([N+](=O)[O-])cc3)N21` (stereo partly drawn), the “hERG current change (%, negative = inhibition) at 10uM” value was -31.6%.

Take `Cc1cc(NC(=O)c2ccccc2)ncc1NC(=O)c1cccs1`: the “hERG current change (%, negative = inhibition) at 10uM” value was 10.5%.

In the case of `COc1ccc(/C=N/NC(=O)c2cccc(Br)c2)cc1CN1CCOCC1`, the “hERG current change (%, negative = inhibition) at 10uM” value is -82.4%.

Take `O=C(COC(=O)c1cc(Br)ccc1O)NNC(=O)c1ccc(Cl)cc1`: the “hERG current change (%, negative = inhibition) at 10uM” value is 12.7%.

On to `O=C(/C=C/c1cccc2ccccc12)NCCC1=CCCCC1`, for which the “hERG current change (%, negative = inhibition) at 10uM” value turned out to be 1.49%.

For `COc1ccc(NC(=O)c2ccc(C)o2)c([N+](=O)[O-])c1`, the “hERG current change (%, negative = inhibition) at 10uM” value worked out at 6.33%.

Take `COCCCN1C(=O)C(=O)/C(=C(/O)c2ccc(OC(C)C)cc2)C1c1ccncc1` (stereo not drawn): the “hERG current change (%, negative = inhibition) at 10uM” value is recorded as 15%.

In the case of `NC(=O)CSc1nnc(NC(=O)C2CC(=O)N(c3ccc(F)cc3)C2)s1` (stereo not drawn), the “hERG current change (%, negative = inhibition) at 10uM” value is given as 26.1%.

Consider `O=C(Nc1ccccc1C(=O)O)c1ccc(Br)c(S(=O)(=O)NCc2ccccc2)c1`, for which the “hERG current change (%, negative = inhibition) at 10uM” value is 27.2%.

Turning to `CCc1nnc(NS(=O)(=O)c2ccc(NC(=S)NC(=O)c3ccc(OC)cc3)cc2)s1`, the “hERG current change (%, negative = inhibition) at 10uM” value is -6.62%.

Take `CCOCCCNc1nc(-c2ccccc2)nc2ccccc12.Cl`: the “hERG current change (%, negative = inhibition) at 10uM” value is -27.5%.

In the case of `CSc1nc(-c2ccccc2)nc(N)c1C(C)=O`, the “hERG current change (%, negative = inhibition) at 10uM” value was found to be 4.13%.

For `COc1ccc(/C=N/Nc2ccc(C(=O)O)cc2)cc1OC`, the “hERG current change (%, negative = inhibition) at 10uM” value amounted to 13.9%.

For the compound `COc1cc2c3c(c1OC)C1(C=CC(=O)C=C1)CC3N(C(C)=O)CC2` (stereo not drawn), the “hERG current change (%, negative = inhibition) at 10uM” value is -1.44%.

Turning to `COC(=O)c1cc2c(ccn2-c2ccc(F)cc2)n1CC(=O)C(C)(C)C`, the “hERG current change (%, negative = inhibition) at 10uM” value is 14.3%.

Regarding `CC1CCC2(CC1)NC(=O)N(CC(=O)Nc1cccc(S(=O)(=O)N3CCCC3)c1)C2=O` (stereo not drawn), the “hERG current change (%, negative = inhibition) at 10uM” value is reported as 2.06%.

As for `S=C(NCc1ccccc1)Nc1ccc(Oc2ccccc2)cc1`, the “hERG current change (%, negative = inhibition) at 10uM” value amounted to 8.85%.

In the case of `COc1cc(OC)c(C2CC(=O)N3CN(c4ccccc4)CSC3=C2C#N)cc1OC` (stereo not drawn), the “hERG current change (%, negative = inhibition) at 10uM” value was found to be 15%.

Regarding `COc1ccccc1NC(=O)C(=O)Nc1ccccn1`, the “hERG current change (%, negative = inhibition) at 10uM” value is on record as -2.36%.

`Cc1cc(C)c(C(=O)N2CCCC(CNS(=O)(=O)c3cccs3)C2)o1` (stereo not drawn): the “hERG current change (%, negative = inhibition) at 10uM” value is 3.03%.

As for `CC(CC(=O)Nc1cccc(S(=O)(=O)N2CCCCC2)c1)c1ccccc1` (stereo not drawn), the “hERG current change (%, negative = inhibition) at 10uM” value is recorded as -13.9%.

As to `Cc1ccccc1C(=O)Nc1nnc(SCC(=O)NCc2ccco2)s1`, the “hERG current change (%, negative = inhibition) at 10uM” value was determined as 14.8%.

Consider `COc1cc2c(cc1O)C[C@H]1NCCc3cc4c(c-2c31)OCO4`, for which the “hERG current change (%, negative = inhibition) at 10uM” value is -46.6%.

In the case of `NC(=O)c1ccsc1NC(=O)COC(=O)C1CC2CCCC(C1)C2=O` (stereo not drawn), the “hERG current change (%, negative = inhibition) at 10uM” value is 25%.

Regarding `Cc1cc(C(=O)C(=O)N(C)C)c(C)n1-c1ccc(Cl)cc1`, the “hERG current change (%, negative = inhibition) at 10uM” value is listed as 2.27%.

As for `O=C(CSCc1c(F)cccc1Cl)NCCc1ccccc1`, the “hERG current change (%, negative = inhibition) at 10uM” value was 2.98%.
